Hit rate of the full screen: of about 150,000 compounds, about 540 (0.36%) showed an effect of 50% or more. The list shows a part of the results.

For the assay, the system named is Plasmodium falciparum. Nature of the assay: Primary screen in NF54 nanoGlo assay, in single point, at 2uM, 72h; a lower Z score goes with more inhibition. In kind it is functional, Erythrocyte. The settings on record: timepoint 72 hour.
Consider `Cc1ccc(NCCCNC2CCN(c3ccc4c(c3)OCO4)CC2)nc1`, for which the “% Inhibition” value is -7% and the Z score is reported as 1.18.
As to `O=S(=O)(N1CCCC1)N1CCOC2(CCN(CCCn3cccn3)CC2)C1`, the “% Inhibition” value is listed as -3% and the Z score came to 0.39.
As for `NC(=O)[C@@H]1CN(C(=O)c2cc(F)c(F)c(F)c2F)CCN1C1CC1`, the “% Inhibition” value was -3% and the Z score worked out at 0.48.
The like results for `CN1CCC(c2nc(-c3ccc(Oc4ccccc4C(F)(F)F)nc3)no2)CC1` were, in that order, 1% and -0.17.
The corresponding values for `CCOc1ccc2nc(NCc3c(C)nn(C)c3Cl)sc2c1` are -13% and 2.24.
The corresponding values for `CNc1cc(N2CCCC2CNC2CCCc3ccc(O)cc32)ncn1` (centres undefined) are -4% and 0.7.
In the case of `OC1(CNc2nccc(N3CCCC3)n2)CCCCCC1`, the “% Inhibition” value was 0% and the Z score stood at 0.07.
The like results for `CCN(CC)CCN1CCC(N2CCS(=O)(=O)CC2)CC1` were, in that order, 3% and -0.62.
The like results for `Cc1cc(C(=O)N2CCN(CCN3CCCOCC3)CC2)nn1-c1ccccc1` were, in that order, -1% and 0.23.
The like results for `CN(CC1CCN(CCc2ccc(F)cc2)CC1)C1CCN(Cc2ccco2)CC1` were, in that order, 17% and -2.94.
Turning to `COc1ccc(N2CCN(C(=O)c3cc4cccnc4n(Cc4ccccc4F)c3=O)CC2)cc1`, the “% Inhibition” value is given as -4% and the Z score is given as 0.63.
The like results for `CN1CCC[C@@H](CNc2ccnc3ccncc23)[C@@H]1c1ccnn1C` were, in that order, 10% and -1.79.
The like results for `CCc1cc(NC2CCN(C[C@@H](O)CC)CC2)nc(-c2ccccn2)n1` were, in that order, 2% and -0.35.
For `Cn1cnc2cncc(C(=O)NC3CCC(N4CCNCC4)CC3)c21` (centres undefined), the “% Inhibition” value was -8% and the Z score was found to be 1.18.
The like results for `c1coc(-c2ncc(CN3CCCC[C@@H]3CCN3CCCC3)cn2)c1` were, in that order, -7% and 1.23.
The corresponding values for `COc1cc2cc(c1OC)-c1cncc(c1)C(=O)NC1(CC1)C(=O)N[C@H](CC(C)C)C(=O)NCCNC2` are -2% and 0.41.
As for `O=C(c1ccoc1)N1CCCN(S(=O)(=O)Cc2ccc(Cl)cc2F)CC1`, the “% Inhibition” value is given as 3% and the Z score is -0.43.
In the case of `Cc1nccn1-c1ccc(N2CCC(N(C)CCN3CCOCC3)CC2)cc1`, the “% Inhibition” value is on record as -5% and the Z score stood at 0.79.
Consider `Nc1cc(-c2ccc(C(=O)N3CCCC4(CCNCC4)CC3)cc2)ncn1`, for which the “% Inhibition” value was -2% and the Z score came to 0.35.
As to `CCc1c[nH]c2ncnc(N3CCC(Oc4cnccn4)CC3)c12`, the “% Inhibition” value is reported as -10% and the Z score turned out to be 2.03.
Consider `CCOC(=O)Cc1c(CN2CCN(C)CC2)c2ccccc2n1Cc1ccccc1`, for which the “% Inhibition” value is reported as -4% and the Z score was 0.71.
Consider `Cc1nc(Nc2ccc(NC(=O)Cc3noc4ccccc34)cc2)cc(N2CCCC2)n1`, for which the “% Inhibition” value is listed as -6% and the Z score is reported as 0.98.
The corresponding values for `CN1CCCN(c2ccc(-c3noc([C@H]4CCCOCC4)n3)cc2Cl)CC1` are 3% and -0.56.
Consider `CC1CCC(Oc2cc(CNCc3cnc(N4CCOCC4)nc3)ccn2)CC1` (centres undefined), for which the “% Inhibition” value was 2% and the Z score is recorded as -0.54.
The corresponding values for `Cc1[nH]cnc1CN(CCO)C(=O)CCCc1ccccc1` are -1% and 0.14.
For the molecule `CCc1cc(N2CCC(NCC3(N4CCOCC4)CCCCC3)CC2)nc(C)n1`, the “% Inhibition” value is given as 4% and the Z score is -0.73.
Turning to `COc1ccc(C(=O)COc2ccc(Cl)c3cccnc23)c(OC)c1`, the “% Inhibition” value is reported as -17% and the Z score is listed as 2.64.
For `c1ccc(-c2n[nH]cc2CNc2ccc3[nH]ncc3c2)cc1`, the “% Inhibition” value is recorded as -6% and the Z score amounted to 0.98.
The corresponding values for `Cc1ccc2nc(C)cc(C(=O)N[C@@H](CCN(C)C)c3ccccc3)c2c1` are -6% and 0.98.
The like results for `Cc1nc2c(C)cccn2c(=O)c1CCN1CCCc2c(c3ccccc3n2Cc2ccccc2)C1` were, in that order, 2% and -0.4.
The like results for `CCC1CN(c2nnnn2Cc2ccc(C(N)=O)cc2)CC(CC)O1` (centres undefined) were, in that order, -4% and 0.67.
With `O=C1C[C@H](CNc2ccc(-c3nc(C4CC4)no3)cn2)CN1C1CCCC1`, the “% Inhibition” value was -15% and the Z score was found to be 2.58.
In the case of `COc1ccc(CNCCNc2ccc3ccccc3n2)cc1OC`, the “% Inhibition” value is listed as -6% and the Z score is on record as 1.3.
Turning to `CN1CCN(c2ccc(F)cc2NCc2cc(F)ccc2F)CC1`, the “% Inhibition” value is on record as -11% and the Z score is given as 2.25.
The like results for `COc1cccc(C(=O)N2CC[C@@](O)(c3ccccc3)C2)c1OCCCN` were, in that order, -6% and 1.11.
The like results for `CN(CC1CCN(CCc2ccc(Cl)cc2)CC1)C(=O)Cc1n[nH]c2ccccc12` were, in that order, -1% and 0.17.
The corresponding values for `Cc1ccc(-c2cc(C(=O)N3CCCC[C@@H]3CCN3CCOCC3)[nH]n2)cc1` are -11% and 2.32.
As to `O=C([C@H]1CC12CCNCC2)N1CCC(N2CCN(CCO)CC2)CC1`, the “% Inhibition” value is -2% and the Z score is given as 0.37.
As to `CC1CCC(NC(=O)c2c(C(F)(F)F)nn(C)c2C(F)(F)F)CC1` (centres undefined), the “% Inhibition” value was -10% and the Z score is 1.66.
As to `CC(C)(C)n1nnc(CNc2ccc3[nH]c(-c4ccccn4)nc3c2)n1`, the “% Inhibition” value is given as -4% and the Z score is recorded as 0.67.
In the case of `Cc1cc(F)ccc1CNc1ccc(N2CCN(C)CC2)nc1`, the “% Inhibition” value stood at 3% and the Z score is -0.45.
Regarding `COCCn1cnnc1CN(C)C(=O)Cn1nc2ccccc2n1`, the “% Inhibition” value is on record as -8% and the Z score was 1.28.
On to `Cc1cc(NCCCN2CCC(C(=O)O)CC2)nc2ccccc12`, for which the “% Inhibition” value is listed as -15% and the Z score came to 2.33.
The like results for `C[C@@H](CNC(=O)c1ccccc1-c1ncc(-c2ccccc2F)o1)CN1CCCCC1` were, in that order, 0% and -0.04.
The corresponding values for `CC1CN(C(C)(C)CNC(=O)C2CCCN2C2CCN(CC(F)(F)F)CC2)CC(C)O1` (centres undefined) are -4% and 0.97.
The corresponding values for `O=C(Nc1ccc2c[nH]nc2c1)[C@H]1CCCN(c2ccc(-n3ccnc3)nn2)C1` are 2% and -0.45.
On to `Cc1noc(C)c1S(=O)(=O)N1CCC[C@H](C(=O)N2CC=C(c3c[nH]c4cc(F)ccc34)CC2)C1`, for which the “% Inhibition” value was -10% and the Z score was found to be 1.69.
The corresponding values for `CN1CCC(Oc2ccc(CNc3nccn4cncc34)cc2)CC1` are -4% and 0.66.
For `COCC(C)OCC(O)CN1CCC(c2nccc(N3CCCC3)n2)CC1` (centres undefined), the “% Inhibition” value came to 1% and the Z score was -0.18.
Regarding `O=C(Nc1cnn(C2CCNCC2)c1)C1(c2cc(F)cc(F)c2)CCCC1`, the “% Inhibition” value is on record as -4% and the Z score is reported as 0.68.
As to `Cc1cc(C(=O)N2CC(CO)CC(CN3CCCN(C)CC3)C2)n[nH]1` (centres undefined), the “% Inhibition” value is listed as -5% and the Z score stood at 0.91.
The corresponding values for `N#CCc1ccc(Oc2ccc(NC(=O)c3ccccc3-c3ccc(Cn4cccn4)cc3)cn2)cc1` are -2% and 0.24.
As to `Cc1cc(C(=O)N[C@@H]2CN(C)C[C@H]2c2cncn2C)cc(NC2CC2)n1`, the “% Inhibition” value was found to be 6% and the Z score is on record as -1.12.
`C#CCN1CCN(C(=O)CN2CCN(CC(=O)N3CCN(CC#C)CC3)[C@@H](C)C2)CC1`: the “% Inhibition” value is -6% and the Z score turned out to be 1.2.
Take `CN1CCC(CNc2ncnc3cc[nH]c23)(c2ccccc2)CC1`: the “% Inhibition” value stood at 0% and the Z score was found to be 0.02.
The like results for `CNc1ncc(C(=O)N[C@H](CO)Cc2c[nH]c3ccccc23)cn1` were, in that order, -1% and 0.29.
As to `Cc1nc2c(c(=O)[nH]1)CN(C(=O)COC[C@H]1CCCO1)C2`, the “% Inhibition” value is reported as -5% and the Z score is 1.12.
The corresponding values for `c1ccc2oc([C@H]3CCCN(c4ncnc5[nH]ccc45)C3)nc2c1` are -16% and 3.54.
The corresponding values for `Cn1cccc1-c1cc(C(=O)N2CCC(c3cc(-c4ccccc4Cl)n[nH]3)CC2)n[nH]1` are -6% and 1.39.
The corresponding values for `CC(C)(C)CC(C)(C)NS(=O)(=O)c1ccc(Cl)cc1Cl` are 2% and -0.36.
Take `Cc1cc(N2CCN(CC(=O)N3CCNCC3)C[C@H](O)C2)nc(N)n1`: the “% Inhibition” value was -7% and the Z score is 1.35.
The like results for `CC1(C)CC(NC2COCC2N2CCCC2)CC(C)(C)N1` (centres undefined) were, in that order, -4% and 0.63.
For `c1cc(-c2cnn([C@@H]3CCCCO3)c2)c2cc[nH]c2n1`, the “% Inhibition” value came to 0% and the Z score is given as -0.05.
The like results for `OC[C@H]1CCCCN1CCNCc1cccc2[nH]ccc12` were, in that order, -9% and 1.83.
Consider `Cc1ccc2c(c1)OC(C)(C)C[C@@H]2Nc1nccc(N2CCC(O)CC2)n1`, for which the “% Inhibition” value stood at 9% and the Z score is -1.37.
As for `CCOCCOc1cc(C)ccc1CN1C(=O)NC(C(C)CC)C1=O` (centres undefined), the “% Inhibition” value stood at 2% and the Z score is on record as -0.29.
The like results for `OCC1CCN(CC2CN(Cc3cccc(-c4ccco4)c3)CC2CO)CC1` (centres undefined) were, in that order, 2% and -0.43.
For `C[C@@H](CC(=O)Nc1cccc(CN2CCC(CO)CC2)c1)N1CCCCC1=O`, the “% Inhibition” value is on record as -10% and the Z score is recorded as 2.09.
`COc1ccccc1N1CCC(NC(c2cccs2)[C@H]2C[C@@H](O)C2)CC1` (some centres undefined): the “% Inhibition” value is given as 4% and the Z score was -0.78.
The like results for `CCn1ncc(CNS(=O)(=O)N2CCCC2)c1C` were, in that order, -9% and 1.99.
On to `Cn1ccnc1NC(=O)c1cccc(CN2CCN(C3CCOCC3)CC2)c1`, for which the “% Inhibition” value is 3% and the Z score is recorded as -0.57.
Consider `O=C(CNC1CCN(Cc2ccccc2)CC1CO)Nc1ccc(N2CCCC2)cc1` (centres undefined), for which the “% Inhibition” value is -8% and the Z score came out at 1.3.
The corresponding values for `OCCN1CCC(Nc2nccc3ccccc23)CC1` are 3% and -0.53.
The corresponding values for `c1ccc2nc(-c3cnc4ccccc4c3-c3c[nH]c4ccccc34)ccc2c1` are -11% and 1.82.
As for `CCOc1cccc2cc([C@H](C)NC(=O)NCc3c(C)nn(CC)c3C)oc12`, the “% Inhibition” value is on record as -5% and the Z score is 0.82.
The like results for `CN1C(=O)CC[C@@H]1C(=O)N(Cc1cscn1)c1ccccc1` were, in that order, 2% and -0.28.
The corresponding values for `Cn1nccc1-n1nc(-c2c[nH]c3ccccc23)nc1CN1CCCCCC1` are 0% and 0.05.
Turning to `c1ccc2c(N3CCN(Cc4cc5n(n4)CCCNC5)CC3)nsc2c1`, the “% Inhibition” value was -9% and the Z score stood at 1.94.
For `COc1cc(NCC[C@H]2CCCN2C)ncn1`, the “% Inhibition” value is -2% and the Z score is on record as 0.26.
For the molecule `FC(F)(F)C1CCCC(NC2CCN(CC3CCOC3)CC2)C1` (centres undefined), the “% Inhibition” value is on record as -5% and the Z score was 1.15.
Turning to `Fc1cccnc1N1CCC(NC2CCN(Cc3ccccc3)C2)C1` (centres undefined), the “% Inhibition” value is -10% and the Z score is 1.84.
The like results for `CC(C)(C)OC(=O)[C@@H]1CCCN1C(=O)Nc1ccc(-n2cnc3ccccc32)nc1` were, in that order, -15% and 2.7.

One may read the % Inhibition as the change of the read-out against control, counted positive when it falls.

These data come from ChEMBL document CHEMBL5308541, “MAIP: An Open-Source Tool to Enrich High-Throughput Screening Output and Identify Novel, Druglike Molecules with Antimalarial Activity” (ACS Med Chem Lett, 2023).
